Data reported in paper PMC10480448.
No constants are given. Whether binding was seen depends on the method and setting. Binding seen in cells or lysates may run through a third protein. Some results given as binding are weak or reduced against the parent protein; the word gives no strength.

The chains behind the UniProt entries cited, without tags or fusion partners. Where a name states a change or a piece, a line headed by the entry shows the natural chain unless it says otherwise. A line that says so, or that is headed by a name, gives the form on record, which may keep a tag or linker. Residues count along the entry.
UniProt Q86WV6: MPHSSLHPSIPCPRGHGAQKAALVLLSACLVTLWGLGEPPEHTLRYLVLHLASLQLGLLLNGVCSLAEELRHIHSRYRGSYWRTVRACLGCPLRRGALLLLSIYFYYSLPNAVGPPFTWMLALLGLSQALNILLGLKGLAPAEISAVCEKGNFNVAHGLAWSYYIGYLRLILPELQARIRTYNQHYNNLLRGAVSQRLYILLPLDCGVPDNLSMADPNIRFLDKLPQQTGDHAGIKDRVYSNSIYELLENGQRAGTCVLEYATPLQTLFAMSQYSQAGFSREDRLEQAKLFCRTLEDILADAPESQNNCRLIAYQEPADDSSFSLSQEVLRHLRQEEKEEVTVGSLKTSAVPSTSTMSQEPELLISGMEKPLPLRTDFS
MYC-STING (140-379): residues 140-379 of Q86WV6
UniProt P35869: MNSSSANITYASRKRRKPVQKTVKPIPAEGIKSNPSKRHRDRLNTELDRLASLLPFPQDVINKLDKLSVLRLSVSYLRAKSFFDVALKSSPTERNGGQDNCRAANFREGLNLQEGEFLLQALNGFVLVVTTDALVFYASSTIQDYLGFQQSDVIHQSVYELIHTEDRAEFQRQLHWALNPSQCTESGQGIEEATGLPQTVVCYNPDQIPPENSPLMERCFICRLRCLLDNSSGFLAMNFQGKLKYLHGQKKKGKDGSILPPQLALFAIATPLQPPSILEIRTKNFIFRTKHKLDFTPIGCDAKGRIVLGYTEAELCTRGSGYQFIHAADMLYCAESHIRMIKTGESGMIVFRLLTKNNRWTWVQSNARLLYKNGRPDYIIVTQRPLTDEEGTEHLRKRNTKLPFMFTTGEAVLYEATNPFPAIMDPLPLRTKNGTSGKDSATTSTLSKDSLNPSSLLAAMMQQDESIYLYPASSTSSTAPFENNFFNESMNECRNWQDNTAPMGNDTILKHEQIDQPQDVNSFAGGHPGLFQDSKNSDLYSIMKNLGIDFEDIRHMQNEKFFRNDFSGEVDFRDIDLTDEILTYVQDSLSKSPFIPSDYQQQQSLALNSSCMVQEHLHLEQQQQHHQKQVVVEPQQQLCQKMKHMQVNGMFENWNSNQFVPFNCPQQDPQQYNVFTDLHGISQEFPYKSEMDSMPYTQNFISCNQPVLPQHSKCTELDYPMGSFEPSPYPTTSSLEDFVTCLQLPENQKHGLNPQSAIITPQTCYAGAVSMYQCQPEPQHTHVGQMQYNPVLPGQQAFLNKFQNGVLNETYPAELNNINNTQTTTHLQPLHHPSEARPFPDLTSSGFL
MYC-AhR (1-424): residues 1-424 of P35869
MYC-AhR (1-120): residues 1-120 of P35869
MYC-AhR (120-424): residues 120-424 of P35869
MYC-AhR (1-277;424-848) (P35869, form named): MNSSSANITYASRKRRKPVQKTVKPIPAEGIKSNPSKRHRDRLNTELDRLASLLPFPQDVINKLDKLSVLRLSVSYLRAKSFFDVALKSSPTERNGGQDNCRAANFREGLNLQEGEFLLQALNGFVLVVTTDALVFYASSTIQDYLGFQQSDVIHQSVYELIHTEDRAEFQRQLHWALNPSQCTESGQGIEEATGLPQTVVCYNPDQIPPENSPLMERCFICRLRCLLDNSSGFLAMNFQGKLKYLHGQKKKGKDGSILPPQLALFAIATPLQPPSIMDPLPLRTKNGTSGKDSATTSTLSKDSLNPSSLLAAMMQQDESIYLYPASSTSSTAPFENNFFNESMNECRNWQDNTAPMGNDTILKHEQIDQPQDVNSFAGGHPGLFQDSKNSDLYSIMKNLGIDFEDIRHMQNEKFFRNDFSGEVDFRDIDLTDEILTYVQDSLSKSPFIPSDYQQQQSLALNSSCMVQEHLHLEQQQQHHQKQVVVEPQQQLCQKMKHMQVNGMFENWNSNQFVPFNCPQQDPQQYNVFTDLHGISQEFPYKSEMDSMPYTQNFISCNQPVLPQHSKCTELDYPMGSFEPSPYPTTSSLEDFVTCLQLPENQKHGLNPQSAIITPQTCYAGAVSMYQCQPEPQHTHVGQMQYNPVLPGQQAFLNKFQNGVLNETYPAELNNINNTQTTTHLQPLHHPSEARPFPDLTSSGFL

Assays:
[1] = target: STING (endogenous) (UniProt Q86WV6); assay: co-IP; endogenous proteins; cell lysate precipitated with anti-STING antibodies plus Protein A/G, immunoblot; cells treated with Kyn, 5HTP, KynA, 3MC, BaP or cisplatin; also SLC7A5 knocked-out cells
[2] = target: MYC-AhR (1-120) (UniProt P35869); assay: co-IP; HEK293T cells transfected with tagged proteins; whole-cell extracts incubated with anti-myc beads, washed five times with low-salt lysis buffer, immunoblot; some samples treated with Kyn or cGAMP
[3] = target: MYC-AhR (1-424) (UniProt P35869); assay: as above
[4] = target: MYC-AhR (120-424) (UniProt P35869); assay: as above
[5] = target: MYC-AhR (WT) (UniProt P35869); assay: as above
[6] = target: MYC-AhR (1-277;424-848) (UniProt P35869); assay: as above
[7] = target: MYC-tagged STING (WT) (UniProt Q86WV6); assay: co-IP; HEK293T cells transfected with MYC-STING and HA-AhR and treated with the AhR inhibitor SR1
[8] = target: MYC-tagged STING (WT) (UniProt Q86WV6); assay: co-IP; HEK293T cells transfected with tagged proteins; whole-cell extracts incubated with anti-myc beads, washed five times with low-salt lysis buffer, immunoblot; some samples treated with Kyn or cGAMP
[9] = target: MYC-STING (140-379) (UniProt Q86WV6); assay: as above

AhR (endogenous) (from UniProt P35869 11-848)
binding [1]: binds

HA-STING (WT) (from UniProt Q86WV6 1-379)
binding [2]: binds weakly
binding [3]: binds weakly
binding [4]: binds weakly
binding [5]: binds
binding [6]: binds

HA-tagged AhR (WT) (from UniProt P35869 11-848)
binding [7]: no binding (condition: with SR1 (AhR inhibitor))
binding [8]: binds
binding [9]: binds
